The values below come from the supplement of paper PMC9046079.

Structures can show the parent of a compound that is named as a salt. ± gives the standard deviation of the averaged measurements. The list shows a part of the results.
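Also: 2.5D pseudo-monolayer culture of ISC-enriched organoids partly embedded atop Matrigel, compound added on day 0 and again on day 3, per-plate LOESS correction before median fold change.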

The experiment relates to murine small intestinal organoids (ENR+CD Paneth differentiation). The experiment can be described thus: cellular ATP (CellTiter-Glo 3D) relative to plate median (log10 fold change); higher = more viable cells. Particulars: 0.08 µM; 6 d. In general terms: Cellular ATP, detected with luciferase, serves as a proxy for viable cell number.
Regarding `CC(NC(=O)C(O)c1cc(F)cc(F)c1)C(=O)NC1C(=O)N(C)c2ccccc2-c2ccccc21` (configuration not stated), the “cellular ATP (log10)” value was determined as 0.0349 ± 0.24.
Consider `O=C(NCc1cccc(O)c1)Nc1nc(-c2ccncc2)cs1`, for which the “cellular ATP (log10)” value was -0.289 ± 0.16.
With `COc1cc2nc(N3CCN(C(=O)C4COc5ccccc5O4)CC3)nc(N)c2cc1OC` (configuration not stated) [Doxazosin Mesylate] the figure was 0.0716 ± 0.14; with `CC(C)Oc1ccc(-c2cnc3c(-c4ccnc5ccccc45)cnn3c2)cc1`, -0.0313 ± 0.046; with `CCc1nc(N)nc(N)c1-c1ccc(Cl)cc1` [Pyrimethamine], -0.266 ± 0.49.
Take `CS(=O)(=O)N1CCN(Cc2cc3nc(-c4cccc5[nH]ncc45)nc(N4CCOCC4)c3s2)CC1`: the “cellular ATP (log10)” value was 0.283 ± 0.11.
For `Cc1ccc(S(=O)(=O)n2c(N)nc3ccccc32)cc1` [ML130 (Nodinitib-1)] the value was 0.0463 ± 0.051; for `C=CC(=O)Nc1cccc(Nc2nc(Nc3ccc(OCCOC)cc3)ncc2F)c1`, 0.217 ± 0.23; for `CC(C)C[C@H](NC(=O)[C@H](Cc1ccccc1)NC(=O)c1cnccn1)B(O)O` [Bortezomib (PS-341)], -1.904 ± 0.015.
With `CC(C)(C)c1cc(NC(=O)Nc2ccc(-c3cn4c(n3)sc3cc(OCCN5CCOCC5)ccc34)cc2)no1` [Quizartinib (AC220)] the figure was -0.151 ± 0.9; with `O=C(/C=C/n1cnc(-c2cc(C(F)(F)F)cc(C(F)(F)F)c2)n1)N1CC(F)(F)C1`, 0.167 ± 0.17; with `Cn1cc(/C=C2\C(=O)Nc3cccnc32)c2ccccc21`, 0.0476 ± 0.23.
Consider `N#CC1(c2ccc(NC(=O)c3cccnc3NCc3ccncc3)cc2)CCCC1` [Apatinib], for which the “cellular ATP (log10)” value came to 0.223 ± 0.12.
Take `NC(=O)c1cccc(-c2cccc(OC(=O)NC3CCCCC3)c2)c1`: the “cellular ATP (log10)” value came out at 0.303 ± 0.25.
Turning to `COc1ccc(COc2ccc(Cc3cnc(N)nc3N)cc2OC)cc1`, the “cellular ATP (log10)” value was -0.0423 ± 0.27.
Consider `Cc1ccc(S(=O)(=O)OCC(=O)Nc2ccc(C(=O)O)c(O)c2)cc1`, for which the “cellular ATP (log10)” value was found to be 0.323 ± 0.16.
Regarding `CCN(c1cc(-c2ccc(CN3CCOCC3)cc2)cc(C(=O)NCc2c(C)cc(C)[nH]c2=O)c1C)C1CCOCC1`, the “cellular ATP (log10)” value was determined as 0.045 ± 0.24.
As to `NC(=O)Nc1cc(-c2cccc(F)c2)sc1C(=O)N[C@H]1CCCNC1`, the “cellular ATP (log10)” value came to 0.0542 ± 0.35.
For `COc1ccc(CNCc2cccc3ccccc23)cc1` the value was -0.0095 ± 0.19; for `CC(C)CCNC(=O)[C@H](CC(C)C)NC(=O)[C@H]1O[C@@H]1C(=O)O` [Loxistatin Acid (E-64C)], 0.0862 ± 0.23.
Consider `O=C(O)c1cccc(-c2noc(-c3ccccc3F)n2)c1` [Ataluren (PTC124)], for which the “cellular ATP (log10)” value turned out to be 0.267 ± 0.14.
With `CN(Cc1cnc2nc(N)nc(N)c2n1)c1ccc(C(=O)N[C@@H](CCC(=O)O)C(=O)O)cc1` [Methotrexate] the figure was -0.615 ± 0.25; with `CN1C2CCCC1CC(NC(=O)c1nn(C)c3ccccc13)C2` (configuration not stated) [Granisetron HCl], -0.214 ± 0.075; with `COc1cc(Br)c(Nc2nc(-c3c(C)nc4ncccn34)cs2)c(Br)c1`, -0.794 ± 1.
For `CN[C@@H](C)C(=O)N[C@H](C(=O)N1CCC[C@H]1C(=O)Nc1snnc1-c1ccccc1)C1CCCCC1`, the “cellular ATP (log10)” value was determined as 0.151 ± 0.21.
For the compound `O=C1CC(=O)c2c(Cl)c(Cl)c(Cl)c(Cl)c21`, the “cellular ATP (log10)” value turned out to be 0.0021 ± 0.14.
For `COc1cc2c(cc1Cc1cccc(Cl)c1F)c(=O)c(C(=O)O)cn2[C@H](CO)C(C)C` [Elvitegravir (GS-9137, JTK-303)], the “cellular ATP (log10)” value was -0.000622 ± 0.45.
As to `O=[N+]([O-])c1ccc2c(c1)S(=O)(=O)C=C2` [Stattic], the “cellular ATP (log10)” value amounted to 0.00756 ± 0.29.
In the case of `CC(C)(C)c1cc(/C=C(\C#N)C(N)=S)cc(C(C)(C)C)c1O` [Tyrphostin AG 879], the “cellular ATP (log10)” value is -0.354 ± 0.24.
Turning to `CN1CCC[C@@H]1CCO[C@](C)(c1ccccc1)c1ccc(Cl)cc1` [Clemastine Fumarate], the “cellular ATP (log10)” value was 0.242 ± 0.26.
As to `NC(=O)c1ncn([C@@H]2O[C@H](CO)[C@@H](O)[C@H]2O)c1N` [Acadesine], the “cellular ATP (log10)” value amounted to 0.0942 ± 0.15.
`O=C(O)Cc1cccc(OCCCN(Cc2cccc(C(F)(F)F)c2Cl)CC(c2ccccc2)c2ccccc2)c1`: the “cellular ATP (log10)” value stood at 0.138 ± 0.06.
As to `CNC(=C[N+](=O)[O-])NCCSCc1ccc(CN(C)C)o1` [Ranitidine], the “cellular ATP (log10)” value was -0.0569 ± 0.61.
As to `O=C(NOC[C@H](O)CO)c1ccc(F)c(F)c1Nc1ccc(I)cc1F`, the “cellular ATP (log10)” value is -0.502 ± 0.7.
Regarding `COc1ccc2cccc(CCNC(C)=O)c2c1` [Agomelatine], the “cellular ATP (log10)” value was found to be 0.106 ± 0.12.
With `CNC(=O)c1cc(Oc2ccc(NC(=O)Nc3cc(C(C)(C)C)nn3-c3ccc4ncccc4c3)c(F)c2)ccn1` [DCC-2036 (Rebastinib)], the “cellular ATP (log10)” value was 0.216 ± 0.31.
`CCN(CC)CC(=O)Nc1c(C)cccc1C` [Lidocaine]: the “cellular ATP (log10)” value was -0.0787 ± 0.16.
